The list shows a part of the results. The list includes weakly bound sequences.
target: T1, MBP-FoxP3dN (UniProt Q99JB6); assay: PD-seq (MBP pull-down with sequencing); settings: 20 mM Tris-HCl pH 7.5, 100 mM NaCl, 1.5 mM MgCl2, 0.4 uM protein, 0.1 uM dsDNA library, 30 min, room temperature, amylose pull-down; high values mean tight binding; double strand, one strand shown
T1 sequence: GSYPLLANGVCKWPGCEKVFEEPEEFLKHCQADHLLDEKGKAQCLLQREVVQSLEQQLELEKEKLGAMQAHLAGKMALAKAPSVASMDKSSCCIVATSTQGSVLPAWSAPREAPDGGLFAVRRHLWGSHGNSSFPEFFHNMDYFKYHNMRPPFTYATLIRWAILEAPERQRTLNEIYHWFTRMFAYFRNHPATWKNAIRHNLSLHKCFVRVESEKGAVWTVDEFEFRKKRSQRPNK

Sequence	binding signal (RPM ratio (pull-down/input))
GATGATTGTTCTCCCAGCTGATGAATTGGCCGACTCGAGTAAACAAATTTTCCTAATCTTTCTGTTCAAGCGCCATCTAC	0.231
GATGATTGTTCTCCCAGCTGATGAATTCTATGTCTCGAGTAAACAAATTTTCCTAATCTTTCTGTTCAAGCGCCATCTAC	0.989
GATGATTGTTCTCCCAGCTGATGAATTGTCCCGATCGAGTAAACAAATTTTCCTAATCTTTCTGTTCAAGCGCCATCTAC	0.266
GATGATTGTTCTCCCAGCTGATGAATTTGTGTATTCGAGTAAACAAATTTTCCTAATCTTTCTGTTCAAGCGCCATCTAC	6.95
GATGATTGTTCTCCCAGCTGATGAATTCCTTGCATCGAGTAAACAAATTTTCCTAATCTTTCTGTTCAAGCGCCATCTAC	0.828
GATGATTGTTCTCCCAGCTGATGAATTTAGAATATCGAGTAAACAAATTTTCCTAATCTTTCTGTTCAAGCGCCATCTAC	0.513
GATGATTGTTCTCCCAGCTGATGAATTAACCCCCTCGAGTAAACAAATTTTCCTAATCTTTCTGTTCAAGCGCCATCTAC	0.257
GATGATTGTTCTCCCAGCTGATGAATTATTCATTTCGAGTAAACAAATTTTCCTAATCTTTCTGTTCAAGCGCCATCTAC	0.406
GATGATTGTTCTCCCAGCTGATGAATTTGACGGTTCGAGTAAACAAATTTTCCTAATCTTTCTGTTCAAGCGCCATCTAC	0.564
GATGATTGTTCTCCCAGCTGATGAATTCGGCGAGTCGAGTAAACAAATTTTCCTAATCTTTCTGTTCAAGCGCCATCTAC	0.586
GATGATTGTTCTCCCAGCTGATGAATTGGCGGTGTCGAGTAAACAAATTTTCCTAATCTTTCTGTTCAAGCGCCATCTAC	0.567
GATGATTGTTCTCCCAGCTGATGAATTTCGATGTTCGAGTAAACAAATTTTCCTAATCTTTCTGTTCAAGCGCCATCTAC	1.93
GATGATTGTTCTCCCAGCTGATGAATTGTGCGGGTCGAGTAAACAAATTTTCCTAATCTTTCTGTTCAAGCGCCATCTAC	1.39
GATGATTGTTCTCCCAGCTGATGAATTCCACACGTCGAGTAAACAAATTTTCCTAATCTTTCTGTTCAAGCGCCATCTAC	0.3
GATGATTGTTCTCCCAGCTGATGAATTGTGAGACTCGAGTAAACAAATTTTCCTAATCTTTCTGTTCAAGCGCCATCTAC	1.14
GATGATTGTTCTCCCAGCTGATGAATTGACGGAATCGAGTAAACAAATTTTCCTAATCTTTCTGTTCAAGCGCCATCTAC	0.235
GATGATTGTTCTCCCAGCTGATGAATTGATCAATTCGAGTAAACAAATTTTCCTAATCTTTCTGTTCAAGCGCCATCTAC	0.406
GATGATTGTTCTCCCAGCTGATGAATTGTTTTCCTCGAGTAAACAAATTTTCCTAATCTTTCTGTTCAAGCGCCATCTAC	4.78
GATGATTGTTCTCCCAGCTGATGAATTGGACATGTCGAGTAAACAAATTTTCCTAATCTTTCTGTTCAAGCGCCATCTAC	0.49
GATGATTGTTCTCCCAGCTGATGAATTCAGCCCCTCGAGTAAACAAATTTTCCTAATCTTTCTGTTCAAGCGCCATCTAC	0.978
GATGATTGTTCTCCCAGCTGATGAATTACTTTCCTCGAGTAAACAAATTTTCCTAATCTTTCTGTTCAAGCGCCATCTAC	0.377

Sequence	binding signal (RPM ratio (pull-down/input))
GATGATTGTTCTCCCAGCTGATGAATTACTAGTCTCGAGTAAACAAATTTTCCTAATCTTTCTGTTCAAGCGCCATCTAC	0.398
GATGATTGTTCTCCCAGCTGATGAATTGGCGAGTTCGAGTAAACAAATTTTCCTAATCTTTCTGTTCAAGCGCCATCTAC	0.515
GATGATTGTTCTCCCAGCTGATGAATTTGTGAACTCGAGTAAACAAATTTTCCTAATCTTTCTGTTCAAGCGCCATCTAC	1.35
GATGATTGTTCTCCCAGCTGATGAATTCCCATCCTCGAGTAAACAAATTTTCCTAATCTTTCTGTTCAAGCGCCATCTAC	0.33
GATGATTGTTCTCCCAGCTGATGAATTAGACCCGTCGAGTAAACAAATTTTCCTAATCTTTCTGTTCAAGCGCCATCTAC	0.299
GATGATTGTTCTCCCAGCTGATGAATTCAGGAAATCGAGTAAACAAATTTTCCTAATCTTTCTGTTCAAGCGCCATCTAC	0.225
GATGATTGTTCTCCCAGCTGATGAATTACTGTTCTCGAGTAAACAAATTTTCCTAATCTTTCTGTTCAAGCGCCATCTAC	0.662
GATGATTGTTCTCCCAGCTGATGAATTATGGATGTCGAGTAAACAAATTTTCCTAATCTTTCTGTTCAAGCGCCATCTAC	0.621
GATGATTGTTCTCCCAGCTGATGAATTGGCCCTGTCGAGTAAACAAATTTTCCTAATCTTTCTGTTCAAGCGCCATCTAC	0.25
GATGATTGTTCTCCCAGCTGATGAATTTAAAGGTTCGAGTAAACAAATTTTCCTAATCTTTCTGTTCAAGCGCCATCTAC	0.283
GATGATTGTTCTCCCAGCTGATGAATTCTTCTGATCGAGTAAACAAATTTTCCTAATCTTTCTGTTCAAGCGCCATCTAC	0.204
GATGATTGTTCTCCCAGCTGATGAATTGTGGATGTCGAGTAAACAAATTTTCCTAATCTTTCTGTTCAAGCGCCATCTAC	0.811
GATGATTGTTCTCCCAGCTGATGAATTTAGAGTGTCGAGTAAACAAATTTTCCTAATCTTTCTGTTCAAGCGCCATCTAC	1.26
GATGATTGTTCTCCCAGCTGATGAATTACGGAACTCGAGTAAACAAATTTTCCTAATCTTTCTGTTCAAGCGCCATCTAC	0.299
GATGATTGTTCTCCCAGCTGATGAATTACTGGGATCGAGTAAACAAATTTTCCTAATCTTTCTGTTCAAGCGCCATCTAC	0.247
GATGATTGTTCTCCCAGCTGATGAATTCGCGAGTTCGAGTAAACAAATTTTCCTAATCTTTCTGTTCAAGCGCCATCTAC	0.522
GATGATTGTTCTCCCAGCTGATGAATTCCTCCTCTCGAGTAAACAAATTTTCCTAATCTTTCTGTTCAAGCGCCATCTAC	0.235
GATGATTGTTCTCCCAGCTGATGAATTCATAGCGTCGAGTAAACAAATTTTCCTAATCTTTCTGTTCAAGCGCCATCTAC	0.723
GATGATTGTTCTCCCAGCTGATGAATTAAGCTTTTCGAGTAAACAAATTTTCCTAATCTTTCTGTTCAAGCGCCATCTAC	2.69
GATGATTGTTCTCCCAGCTGATGAATTGCGGCCGTCGAGTAAACAAATTTTCCTAATCTTTCTGTTCAAGCGCCATCTAC	0.756
GATGATTGTTCTCCCAGCTGATGAATTAGTTCTGTCGAGTAAACAAATTTTCCTAATCTTTCTGTTCAAGCGCCATCTAC	0.398

Sequence	binding signal (RPM ratio (pull-down/input))
GATGATTGTTCTCCCAGCTGATGAATTTTCTATATCGAGTAAACAAATTTTCCTAATCTTTCTGTTCAAGCGCCATCTAC	0.33
GATGATTGTTCTCCCAGCTGATGAATTTTTACAGTCGAGTAAACAAATTTTCCTAATCTTTCTGTTCAAGCGCCATCTAC	0.211
GATGATTGTTCTCCCAGCTGATGAATTGATGACTTCGAGTAAACAAATTTTCCTAATCTTTCTGTTCAAGCGCCATCTAC	0.689
GATGATTGTTCTCCCAGCTGATGAATTCGCGGAGTCGAGTAAACAAATTTTCCTAATCTTTCTGTTCAAGCGCCATCTAC	0.23
GATGATTGTTCTCCCAGCTGATGAATTGCTCCGGTCGAGTAAACAAATTTTCCTAATCTTTCTGTTCAAGCGCCATCTAC	0.297
GATGATTGTTCTCCCAGCTGATGAATTAGTGATCTCGAGTAAACAAATTTTCCTAATCTTTCTGTTCAAGCGCCATCTAC	1.85
GATGATTGTTCTCCCAGCTGATGAATTTTTATATTCGAGTAAACAAATTTTCCTAATCTTTCTGTTCAAGCGCCATCTAC	0.437
GATGATTGTTCTCCCAGCTGATGAATTCTCAGCGTCGAGTAAACAAATTTTCCTAATCTTTCTGTTCAAGCGCCATCTAC	0.353
GATGATTGTTCTCCCAGCTGATGAATTATAGGGATCGAGTAAACAAATTTTCCTAATCTTTCTGTTCAAGCGCCATCTAC	0.326
GATGATTGTTCTCCCAGCTGATGAATTGAAGCCATCGAGTAAACAAATTTTCCTAATCTTTCTGTTCAAGCGCCATCTAC	0.96
GATGATTGTTCTCCCAGCTGATGAATTAGCGTGTTCGAGTAAACAAATTTTCCTAATCTTTCTGTTCAAGCGCCATCTAC	1.39
GATGATTGTTCTCCCAGCTGATGAATTTAAGCTCTCGAGTAAACAAATTTTCCTAATCTTTCTGTTCAAGCGCCATCTAC	0.364
GATGATTGTTCTCCCAGCTGATGAATTACGGCACTCGAGTAAACAAATTTTCCTAATCTTTCTGTTCAAGCGCCATCTAC	0.554
GATGATTGTTCTCCCAGCTGATGAATTCGTCTGTTCGAGTAAACAAATTTTCCTAATCTTTCTGTTCAAGCGCCATCTAC	0.639
GATGATTGTTCTCCCAGCTGATGAATTAAGGTGATCGAGTAAACAAATTTTCCTAATCTTTCTGTTCAAGCGCCATCTAC	0.481
GATGATTGTTCTCCCAGCTGATGAATTAACGACATCGAGTAAACAAATTTTCCTAATCTTTCTGTTCAAGCGCCATCTAC	0.615
GATGATTGTTCTCCCAGCTGATGAATTTTGGCAGTCGAGTAAACAAATTTTCCTAATCTTTCTGTTCAAGCGCCATCTAC	0.443
GATGATTGTTCTCCCAGCTGATGAATTGAAATGATCGAGTAAACAAATTTTCCTAATCTTTCTGTTCAAGCGCCATCTAC	0.287
GATGATTGTTCTCCCAGCTGATGAATTGGAAGGGTCGAGTAAACAAATTTTCCTAATCTTTCTGTTCAAGCGCCATCTAC	0.225
GATGATTGTTCTCCCAGCTGATGAATTTTTCCAATCGAGTAAACAAATTTTCCTAATCTTTCTGTTCAAGCGCCATCTAC	0.304
GATGATTGTTCTCCCAGCTGATGAATTATCGGCGTCGAGTAAACAAATTTTCCTAATCTTTCTGTTCAAGCGCCATCTAC	0.48
